This is an account of results in paper PMC4336329 (PLoS ONE, 2015).

SMILES strings stand for the structures. In all, about 310,000 compounds went through this assay and about 14,000 (4.5%) showed an effect of 50% or more. Effects have a minus sign here. Some of the results follow.
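Also: peak tail current of the secondary pulse compared with the same well before compound.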

The target in this assay is human ether-à-go-go-related gene (hERG) potassium channel (human, UniProt Q12809). Put plainly: primary screen, population patch clamp on CHO cells stably expressing hERG.
human ether-à-go-go-related gene (hERG) potassium channel, sequence (Q12809 whole entry, looked up): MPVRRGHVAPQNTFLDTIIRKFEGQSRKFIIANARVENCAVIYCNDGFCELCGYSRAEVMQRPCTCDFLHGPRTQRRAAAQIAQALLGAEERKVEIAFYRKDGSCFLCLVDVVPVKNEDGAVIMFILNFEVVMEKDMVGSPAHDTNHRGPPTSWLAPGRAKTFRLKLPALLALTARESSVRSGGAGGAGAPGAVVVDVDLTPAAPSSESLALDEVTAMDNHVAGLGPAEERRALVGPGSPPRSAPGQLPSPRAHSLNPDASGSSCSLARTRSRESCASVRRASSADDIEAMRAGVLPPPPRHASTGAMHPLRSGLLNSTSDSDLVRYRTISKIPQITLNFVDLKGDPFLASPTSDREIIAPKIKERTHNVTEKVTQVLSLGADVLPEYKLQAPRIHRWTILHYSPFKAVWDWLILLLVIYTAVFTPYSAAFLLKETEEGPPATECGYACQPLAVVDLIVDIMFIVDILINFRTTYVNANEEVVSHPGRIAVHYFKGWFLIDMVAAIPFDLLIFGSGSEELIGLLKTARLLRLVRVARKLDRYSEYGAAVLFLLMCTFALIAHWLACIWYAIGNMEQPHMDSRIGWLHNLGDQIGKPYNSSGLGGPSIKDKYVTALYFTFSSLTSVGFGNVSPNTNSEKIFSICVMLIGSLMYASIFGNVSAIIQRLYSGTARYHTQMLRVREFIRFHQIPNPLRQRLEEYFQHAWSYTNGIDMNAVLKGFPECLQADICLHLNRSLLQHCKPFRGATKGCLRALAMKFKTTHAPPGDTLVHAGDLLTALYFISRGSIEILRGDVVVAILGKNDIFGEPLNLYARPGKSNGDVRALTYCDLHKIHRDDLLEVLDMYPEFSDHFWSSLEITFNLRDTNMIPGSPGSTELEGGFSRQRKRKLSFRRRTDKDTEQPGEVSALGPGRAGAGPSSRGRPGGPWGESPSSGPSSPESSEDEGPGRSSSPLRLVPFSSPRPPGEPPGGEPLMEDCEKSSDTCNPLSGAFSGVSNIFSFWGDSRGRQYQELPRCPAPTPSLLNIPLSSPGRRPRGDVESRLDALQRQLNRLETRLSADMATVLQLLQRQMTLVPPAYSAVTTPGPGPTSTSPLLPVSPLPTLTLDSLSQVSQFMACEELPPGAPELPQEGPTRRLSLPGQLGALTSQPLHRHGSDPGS
On to `CS(=O)(=O)c1ccc2nc(NC(=O)c3cc(-c4ccccc4)nn3-c3ccccc3)sc2c1`, for which the “hERG current change (%, negative = inhibition) at 10uM” value came to 8.38%.
To `O=C(O)CCC(=O)N1CCN(c2ccccn2)CC1` belongs 9.16%; to `Cc1ccccc1-n1c(=O)cc(N2CCCCCC2)[nH]c1=O`, 1.47%.
To `Cc1cc2occ(CC(=O)Nc3nccs3)c2cc1C(C)C` belongs -0.722%.
Take `Cc1cc(C)c2nc(N3CCCC3)c(C#N)cc2c1`: the “hERG current change (%, negative = inhibition) at 10uM” value was determined as 3.03%.
For the compound `Cc1cccc(NC(=O)CS(=O)(=O)c2cn(C)c3ccccc23)c1`, the “hERG current change (%, negative = inhibition) at 10uM” value is recorded as -5.95%.
To `COc1cccc(-c2nc(NCCN3CCOCC3)c3ccccc3n2)c1O` belongs -40.6%; to `O=C(C1CCN(S(=O)(=O)c2ccc(-n3cnnn3)cc2)CC1)N1CCCCC1`, -30.1%; to `Cc1oc(-c2cccs2)nc1CSCC(=O)N1CCC2(CC1)OCCO2`, -8.76%.
On to `COc1ccc2[nH]c3c(c2c1)CN(C)CC3.Cl`, for which the “hERG current change (%, negative = inhibition) at 10uM” value is 8.31%.
To `Cc1ccc(S(=O)(=O)Nc2cccc(C(=O)NC3CCN(Cc4ccccc4)CC3)c2)cc1F` belongs -80.6%; to `COc1cc(OC)c(N(C)C(=O)c2cc3c(s2)-c2ccccc2S(=O)(=O)C3)cc1Cl`, -13.2%; to `COc1ccc(NC(=O)CN2CCc3ccccc3C2)cc1OC`, 1.05%.
With `Cc1ccc(Cc2c(C)nc3nc(SCC(=O)NCCCN4CCOCC4)nn3c2C)cc1`, the “hERG current change (%, negative = inhibition) at 10uM” value is -9.58%.
To `COC(=O)NNC(=O)COc1cc(C)c(Br)cc1C(C)C` belongs 1.29%; to `Cc1onc(-c2ccccc2Cl)c1C(=O)NC(=S)NCC(=O)c1ccccc1`, -16.9%.
To `CCC(C)NS(=O)(=O)c1ccc(OCC(=O)NCc2cccnc2)cc1` (centres unmarked) belongs 11.4%; to `CCCn1c(NCc2ccco2)nc2c1c(=O)n(C)c(=O)n2C`, -14.5%; to `Cc1cc(N2CCCCC2)ccc1C=C1C(=O)N(C)C(=S)N(C)C1=O`, 10.7%.
On to `COc1ccccc1C(=O)Nc1ccccc1N1CCOCC1`, for which the “hERG current change (%, negative = inhibition) at 10uM” value is on record as -6.98%.
With `CCNc1nc(Cl)nc(NCc2ccccc2)n1`, the “hERG current change (%, negative = inhibition) at 10uM” value came out at 6.89%.
Turning to `c1ccc(OCc2nnc3n2CCCCC3)cc1`, the “hERG current change (%, negative = inhibition) at 10uM” value was 16.9%.
To `N#CC1=C(N)OC2=C(C(=O)CCC2)C12CCN(C(=O)OCc1ccccc1)CC2` belongs -55.9%.
As to `CC(C)c1ccc2c(c1)[C@H]1OCC[C@H]1[C@@H](c1cccs1)N2`, the “hERG current change (%, negative = inhibition) at 10uM” value is 9.24%.
As to `CCOC(=O)C1CCN(c2nc(-c3ccc(C)cc3)nc3ccccc23)CC1`, the “hERG current change (%, negative = inhibition) at 10uM” value is on record as 15.4%.
To `O=C(COC(=O)c1cc[n+]([O-])cc1)Nc1ccc(F)c([N+](=O)[O-])c1` belongs 4.04%.
In the case of `Cc1[nH]n(-c2ccccc2)c(=O)c1N=Nc1ccc2c(c1)OCO2`, the “hERG current change (%, negative = inhibition) at 10uM” value stood at 11.7%.
To `CCOc1ccnc(OCC)c1Br` belongs 28.3%.
Take `CC(=O)N1CCn2c3c(c4cc(C)ccc42)CCCC31` (centres unmarked): the “hERG current change (%, negative = inhibition) at 10uM” value is listed as -9.77%.
To `CCN(CC)c1ccc2cc(C(=O)NNC(=O)c3ccc(S(=O)(=O)N4CCCCC4)cc3)c(=O)oc2c1` belongs 27.8%; to `COC(=O)c1ccc(NC(=O)CCN2CCN(c3ccccc3)CC2)cc1`, -28.9%; to `CN(CC(=O)Nc1ccccc1Cl)C(=O)c1ccccc1Sc1ccccc1C#N`, -4.31%.
To `Cc1cc(/C=C2\C(=O)NC(=O)N(Cc3ccco3)C2=O)c(C)n1-c1ccc(O)cc1` belongs -2.12%; to `Cc1cc(C(=O)NCc2csc(-c3ccccc3)n2)no1`, -10.8%; to `O=C(CN1C(=O)S/C(=C\c2ccccc2)C1=O)Nc1cc([N+](=O)[O-])ccc1O`, 6.11%.
To `CCn1c(CNC(=O)c2ccc(OC)c(OC)c2)nnc1SCC(=O)Nc1ccccc1` belongs -21.5%; to `CN(CC(CC(=O)Nc1nncs1)c1ccccc1)S(=O)(=O)c1ccccc1` (centres unmarked), -14.2%; to `COC(=O)c1ccc(CSc2ncnc3sc(C)c(C)c23)o1`, 12.4%.
Take `Cc1c(CC(=O)NCC(=O)NCC(=O)O)c(=O)oc2cc3c(cc12)CCC(C)(C)O3`: the “hERG current change (%, negative = inhibition) at 10uM” value came out at 12.5%.
To `Cl.c1cc(CNC23CC4CC(CC(C4)C2)C3)ccn1` belongs -20.2%.
To `COC(=O)Cc1c(C)nc2nc(-c3ccccc3)[nH]n2c1=O` belongs 11.2%; to `Clc1cccc(Cl)c1NC1=NCCC1`, 20.2%; to `CCN1CCN(CC(=O)Nc2ccc(OC(F)(F)F)cc2)CC1.Cl`, -69.1%.
For the compound `COc1cc(C2c3[nH]c4ccccc4c3C[C@H]3C(=O)N(CCO)CC(=O)N23)cc(OC)c1OC` (some centres unmarked), the “hERG current change (%, negative = inhibition) at 10uM” value was determined as 6.74%.
